# Assay results published in PubChem BioAssay AID2100 (National Center for Advancing Translational Sciences (NCATS), 2009).
# The whole screen tested about 300,000 compounds, of which about 1,200 (0.4%) were called active. Inconclusive means that the source gave no clear call. Such entries were picked first, then a sample of the others. Calls come from the whole dose curve; as a rule, active = well fitted inhibition curve with a large enough effect; inconclusive = small, poorly fitted or top-dose-only effect, or another doubt; inactive = no such curve, though single readings can be large or run the other way. Potencies beside an inconclusive call are fits to weak or partial responses and may not hold up.
# Target: Lysosomal alpha-glucosidase (Homo sapiens) (UniProt P10253)
# Test: qHTS Assay for Inhibitors and Activators of Human alpha-Glucosidase Cleavage of Glycogen;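 for activity change, negative = inhibition: 0% = full enzyme reaction and -100% = no-enzyme basal signal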
# Conditions: recombinant GAA, glycogen substrate, Amplex Red glucose oxidase fluorescence; activity change, negative = inhibition: at 76.4 µM (top of the series) unless noted
# Procedure, shortened: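 Recombinant human enzyme (4 nM); glycogen substrate; 37 C, 40 min, pH 5.0. Readout: coupled glucose oxidase/Amplex Red fluorescence.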
# Potency is the fitted concentration of half-maximal effect.
SMILES,Potency,"activity change, negative = inhibition"
CCOc1ccc(NCc2cccn2-c2nnc(N3CCC(C(=O)NCCc4ccc(OC)c(OC)c4)CC3)s2)cc1,"inconclusive: 14.1 µM [inhibitor, partial curve]",
COc1ccc(OC)c(C2CC(=O)OC3=C2C(=O)CC(C)(C)C3)c1 (stereo not given),"inconclusive: 11.2 µM [inhibitor, partial curve]",
FC(F)(F)c1cnc(NNC(=S)Nc2ccc(Cl)cc2)c(Cl)c1,"inconclusive: 39.5 µM [inhibitor, single point]",
CC1(C)Cc2c(sc(NC(=S)NC(=O)c3ccccc3)c2C(=O)O)CO1,"inconclusive: 31.6 µM [inhibitor, single point]",
CCN1C(=O)c2cccc3c(N)ccc1c23,active: 28.2 µM,
C/C(=N\NC(=S)NCc1ccccc1)c1ccc(C)o1,"inconclusive: 28.2 µM [inhibitor, partial curve]",
NCCc1ccc(O)c(O)c1,active: 1.98 µM,
Cn1c(=O)n(C/C=C/c2ccccc2)c(=O)c2c1nc1n2CCN1c1ccc(Cl)cc1,"inconclusive: 31.6 µM [inhibitor, partial curve]",
COC(=O)CCCC1=CC2=CC(=O)C(C)(OC(=O)c3cccs3)C(=O)C2=CN1CCCCO (stereo not given),"inconclusive: 31.4 µM [activator, single point]",
CCc1ccc(CNc2ccc(N3CCN(C(C)=O)CC3)cc2)cc1,"inconclusive: 17.6 µM [inhibitor, partial curve]",
N#CC1=C(N)OC2=C(CCc3ccccc32)C1c1ccccc1Cl (stereo not given),"inconclusive: 44.7 µM [activator, single point]",
COC(=O)c1ccc(NC(=O)CSc2cn(CC(=O)N3CCCCCC3)c3ccccc23)cc1,,inactive: -5.76% [at 76.3 µM]
CCc1c(C)sc(NC(NC(C)=O)(C(=O)OC)C(F)(F)F)c1C#N (stereo not given),"inconclusive: 12.6 µM [inhibitor, partial curve]",
CCCc1ccc(C(=O)NNc2ccccc2F)cc1,"inconclusive: 11.2 µM [inhibitor, partial curve]",
Cc1cc(C(=O)NNC(=S)NCc2ccco2)n(C)n1,"inconclusive: 9.92 µM [inhibitor, partial curve]",
CCCC1Cc2c(sc(N)c2C#N)CO1 (stereo not given),"inconclusive: 25.1 µM [inhibitor, partial curve]",
COc1cccc(NC(=O)C2CCCN(c3nnc(-n4c(C)ccc4C)s3)C2)c1 (stereo not given),,inactive: 9.01% [at 76.3 µM]
N#Cc1nc(-c2ccco2)oc1NCCCn1ccnc1,"inconclusive: 14 µM [inhibitor, partial curve]",
CCC(NC(=O)Nc1cc(OC)ccc1OC)c1c(-n2cccc2)sc2c1CCN(CC)C2 (stereo not given),,inactive: 14.8% [at 76.3 µM]
CCOC(=O)c1ccc(CNC(=O)C2CCCCC2C(=O)OCC(F)(F)F)o1 (stereo not given),"inconclusive: 1 µM [inhibitor, partial curve, poor fit]",
CC(=O)c1c(C)oc2c1cc(O)c1ccccc12,"inconclusive: 14.1 µM [inhibitor, partial curve]",
Cc1oc2c(O)c(O)ccc2c(=O)c1-c1cnn(-c2ccccc2)c1,active: 5.62 µM,
C/C=C\C=C\C(=O)N1CC2(CC(c3cccc(NC(=O)CC)c3)=NO2)C[C@H]1C(N)=O (stereo not given in full),,inactive: -10.3%
COc1cc(/C=N/NC(=O)c2ccccc2)ccc1O,"inconclusive: 22.4 µM [inhibitor, partial curve]",

SMILES,Potency,"activity change, negative = inhibition"
O=C(NNc1ccc(C(F)(F)F)cc1[N+](=O)[O-])c1ccc(NS(=O)(=O)c2ccc(F)cc2)cc1,"inconclusive: 15.8 µM [inhibitor, partial curve]",
Cc1ccc(NC(=O)CC2SC(=O)N(c3ccccc3)C2=O)cc1 (stereo not given),"inconclusive: 50.1 µM [inhibitor, single point]",
COc1ccccc1N1CCN(C(CNS(=O)(=O)c2ccccc2)c2ccccc2)CC1 (stereo not given),"inconclusive: 50.1 µM [inhibitor, single point]",
CCCCN(CC)Cc1c(C)[nH]c2c(ccc3ccccc32)c1=O,,inactive: -3.17%
Cc1cc(C)n(-c2nc3ccccc3nc2N2CCN(c3cccc(C)c3C)CC2)n1,,inactive: -13.4% [at 76.3 µM]
COc1c(Cl)cc(C(=O)N(Cc2ccc(C)o2)C2CCS(=O)(=O)C2)cc1Cl (stereo not given),,inactive: 10.7% [at 76.3 µM]
CCOC(=O)/C(=N\Nc1cc(Cl)ccc1Cl)N1CC(C)OC(C)C1 (stereo not given),"inconclusive: 10 µM [inhibitor, partial curve, poor fit]",
CCOCCCNC(=S)NCCNc1nc2c(C)cccc2cc1C#N,,inactive: -1.01%
O=C(COc1ccc(Br)cc1Br)NC(=S)N1CCCc2ccccc21,"inconclusive: 31.6 µM [inhibitor, single point]",
NC(=O)c1ccc(N2CCN(c3ccccc3O)CC2)c([N+](=O)[O-])c1,"inconclusive: 2.82 µM [inhibitor, full curve]",
COc1cc(CNc2ccccc2SC)ccc1O,"inconclusive: 25.1 µM [inhibitor, partial curve]",
N#CCC(=O)NNC(=S)Nc1ccccc1C(F)(F)F,"inconclusive: 50.1 µM [inhibitor, single point]",
COc1ccc(C2C(=O)c3ccccc3C2=O)cc1OC,"inconclusive: 39.8 µM [inhibitor, single point]",
c1ccc2[nH]c(CN3CCOCC3)nc2c1,,inactive: -1.9%
COc1cccc(CNC(=O)c2cc3cc(C)ccc3n2C)c1,,inactive: 16.2% [at 76.3 µM]
O=C(NC(=S)Nc1ccc(N2CCCC2)cc1)c1ccccc1[N+](=O)[O-],,inactive: -1.32%
COc1ccc(-c2nn(C)c3sc(C(=O)Nc4cc(OC)c(OC)c(OC)c4)cc23)cc1OC,,inactive: -3.14% [at 76.3 µM]
CCOC(=O)C(=O)c1c(-c2ccc(C)cc2)nc2ccccn12,,inactive: -9.64%
NS(=O)(=O)c1ccc(NC(=O)CSc2ccccn2)cc1,"inconclusive: 9.92 µM [inhibitor, partial curve, poor fit]",
C1CCN(C2CCN(c3nc4nonc4nc3N3CCSCC3)CC2)C1,,inactive: 1.99%
CC1(C)CC(=O)C(CC(=O)N2CCC(Cc3ccccc3)CC2)C(=O)C1,"inconclusive: 22.2 µM [inhibitor, single point]",
Cn1cccc1CNC(=S)Nc1ccccc1F,"inconclusive: 31.6 µM [inhibitor, single point]",
CCCSc1ncc(Cl)c(C(=O)Nc2ccc(S(=O)(=O)N3CCCCC3C)cc2)n1 (stereo not given),"inconclusive: 11.2 µM [inhibitor, single point]",
O=[N+]([O-])c1ccc(O)c(NC(=S)Nc2ccccc2)c1,"inconclusive: 20 µM [inhibitor, partial curve]",

SMILES,Potency,"activity change, negative = inhibition"
Cc1ccc(-c2nc3ncccn3c2Nc2ccccc2C)o1,"inconclusive: 9.92 µM [inhibitor, partial curve]",
NC(=O)CC1C(=O)N(c2ccc(Cl)cc2)C(=S)N1NC(=O)c1cccc(F)c1 (stereo not given),"inconclusive: 10 µM [inhibitor, partial curve]",
COc1ccc(NC(=S)NNC(=O)CNc2ccc(Cl)cc2)cc1,"inconclusive: 15.8 µM [inhibitor, partial curve]",
Cc1ccc(NS(=O)(=O)c2ccc(Br)s2)nc1,,inconclusive: 30.5% [activator]
CCOC(=O)C1=C(CS(=O)(=O)c2ccc(Cl)cc2)NC(=O)NC1c1ccc(O)c(OC)c1 (stereo not given),"inconclusive: 50.1 µM [inhibitor, single point]",
COc1ccc(Br)cc1C1NC(=O)c2c(sc3c2CCN(C)C3)N1 (stereo not given),"inconclusive: 25.1 µM [inhibitor, single point]",
O=C(COc1cccc2cccnc12)N/N=C/c1ccccc1O,,inactive: 2.68%
O=C(c1cc([N+](=O)[O-])cc([N+](=O)[O-])c1)N1CCOCC1,,inactive: 10.8%
Cc1ccc2sc(NNC(=O)C3=COCCO3)nc2c1C,active: 6.26 µM,
CCCSc1nc2sc3c(c2c(=O)[nH]1)CCN(Cc1ccccc1)C3,"inconclusive: 28 µM [activator, partial curve]",
O=C1CC(Nc2ccc(N3CCOCC3)cc2)C(=O)N1CCc1ccccc1 (stereo not given),"inconclusive: 7.94 µM [inhibitor, full curve]",
COc1ccc(Nc2ccc(Nc3ccc(OC)cc3)nn2)cc1,"inconclusive: 15.8 µM [inhibitor, partial curve]",
Cc1ccc2c(CC(=O)Nc3c(C(=O)Nc4cccc(Cl)c4)oc4ccccc34)coc2c1C,,inactive: 12.2% [at 76.3 µM]
O=C(CN1CCN(c2ccccc2O)CC1)NC(=O)NCc1ccco1,"inconclusive: 7.94 µM [inhibitor, full curve]",
CCOc1ccc(-c2csc(N)c2C(=O)OC)cc1,"inconclusive: 11.2 µM [inhibitor, full curve, poor fit]",
CC1CCCN(S(=O)(=O)c2ccc(C(=O)Nc3sc4c(c3C(N)=O)CCN(C)C4)cc2)C1 (stereo not given),"inconclusive: 50.1 µM [activator, single point]",
CCOC(=O)c1c(CSc2ccccc2)n(C)c2ccc(O)c(CN3CCN(C)CC3)c12,"inconclusive: 8.91 µM [inhibitor, full curve, poor fit]",
COc1ccc(CC(=O)NNC(=S)Nc2ccccc2)cc1Br,"inconclusive: 24.9 µM [inhibitor, single point]",
CCOc1ccc(NC(=O)Nc2cc(C(C)C)c(O)cc2C)cc1,"inconclusive: 17.6 µM [inhibitor, partial curve]",
COc1ccc(CCN=C(NS(=O)(=O)c2ccccc2)c2ccccc2)cc1OC,"inconclusive: 28.2 µM [activator, single point]",
O=C(CCCn1c(=O)c2sccc2n(Cc2ccc(F)cc2Cl)c1=O)NCc1ccc2c(c1)OCO2,,inactive: 10.3% [at 76.3 µM]
FC(F)(F)c1cnc(NNC(=S)Nc2ccccc2Cl)c(Cl)c1,"inconclusive: 12.6 µM [inhibitor, partial curve]",
